# Measured values taken from PubChem BioAssay AID588342 (National Center for Advancing Translational Sciences (NCATS), 2011).
# Among all 360,000 compounds or so, about 25,000 (6.9%) were called active. This list was built around the results that the source calls inconclusive (neither active nor inactive); the mix of calls is not that of the screen. Calls come from the whole dose curve; as a rule, active = well fitted inhibition curve with a large enough effect; inconclusive = small, poorly fitted or top-dose-only effect; inactive = flat fitted curve, though single readings scatter. A potency beside an inconclusive call is a rough fit, not a confirmed value.
# Target: Luciferin 4-monooxygenase (Photinus pyralis) (UniProt P08659)
# Sequence of UniProt P08659 (P08659 whole entry, looked up): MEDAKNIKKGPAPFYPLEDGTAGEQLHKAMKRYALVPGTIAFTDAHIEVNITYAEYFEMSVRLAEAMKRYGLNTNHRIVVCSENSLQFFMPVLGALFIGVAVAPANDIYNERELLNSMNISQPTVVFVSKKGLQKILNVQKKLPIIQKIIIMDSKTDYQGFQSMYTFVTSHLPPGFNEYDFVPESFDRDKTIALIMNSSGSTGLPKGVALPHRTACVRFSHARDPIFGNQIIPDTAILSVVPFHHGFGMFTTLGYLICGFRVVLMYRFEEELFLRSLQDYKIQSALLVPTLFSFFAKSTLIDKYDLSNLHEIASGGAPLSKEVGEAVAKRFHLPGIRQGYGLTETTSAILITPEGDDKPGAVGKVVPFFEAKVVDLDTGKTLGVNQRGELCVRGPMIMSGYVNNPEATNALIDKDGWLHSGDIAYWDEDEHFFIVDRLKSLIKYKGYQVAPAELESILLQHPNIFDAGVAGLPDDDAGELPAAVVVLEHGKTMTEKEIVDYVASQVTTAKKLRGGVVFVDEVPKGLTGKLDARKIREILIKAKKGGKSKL
# Assay: qHTS profiling assay for firefly luciferase inhibitor/activator using purifed enzyme and Km concentrations of substrates (counterscreen for miR-21 project); note: nearly all actives have a fitted effect of over 55% in size;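 for activity change, negative = inhibition: plate controls were vehicle for no effect and reference inhibitor for full effect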
# Conditions: purified FLuc, luminescence inhibition; activity change, negative = inhibition: at 57.5 µM (top of the series)
# Method in brief: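 Biochemical qHTS of compounds, final roughly 60 µM downward over six points, against 10 nM purified firefly luciferase using Km concentrations of substrates (10 uM D-luciferin, 10 uM ATP) in Tris acetate pH 7.5 buffer; luminescence output.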
# Potency is the fitted concentration of half-maximal effect; tags give direction and shape of the fitted curve.
Structure (SMILES),"activity change, negative = inhibition",Potency
COc1cc(NC(=O)COc2ccc(Cl)cc2)ccc1-c1cc2ccccc2oc1=O,inactive: 3.45%,–
O=C(CSc1ccccn1)Nc1nc2ccccc2s1,–,"inconclusive: 26.9 µM [inhibitor, single point]"
CCOc1ccc(-c2cc(C(=O)NN=C3CCN(C)CC3)[nH]n2)cc1,–,"inconclusive: 37.9 µM [inhibitor, single point]"
CCC(=O)Nc1ccc2c(c1)nc1n2CCN(C2CCCCC2)C1,–,"inconclusive: 21.3 µM [inhibitor, partial curve, poor fit]"
Cc1ccc(C(=O)COC(=O)c2cc(Cl)nc3ccccc23)cc1,–,active: 10.7 µM
O=C(N/N=C/c1cccs1)c1cnccn1,–,"inconclusive: 16.9 µM [inhibitor, partial curve]"
CCN(CC)c1ccc2cc(-c3nc(-c4ccc(OC)cc4)cs3)c(=O)oc2c1,–,"inconclusive: 5.36 µM [inhibitor, partial curve]"
CC(=O)Nc1ccc(NC(=O)C(C)OC(=O)CNC(=O)c2sc3ccccc3c2Cl)cc1 (stereo unspecified),–,"inconclusive: 26.9 µM [inhibitor, single point]"
COc1ccc(N2CCN(S(=O)(=O)c3c(C)[nH]c(=O)[nH]c3=O)CC2)cc1,inactive: 2.15%,–
COc1ccc(CCNC(=O)C(=O)Nc2ccc(C)cc2)cc1OC,inactive: -7.73%,–
O=C(CCCN1C(=O)c2ccccc2C1=O)NCCc1ccc(OC(F)F)cc1,inactive: -1.34%,–
O=C(NNC1=NS(=O)(=O)c2ccccc21)c1ccc(Cl)cc1,–,active: 3.38 µM
O=C(NC1CCCCCCC1)c1cccs1,–,"inconclusive: 26.9 µM [inhibitor, single point]"
Cc1nc(SCC(=O)CC(=O)OC(C)C)c(C#N)c(C)c1C,–,"inconclusive: 26.9 µM [inhibitor, partial curve, poor fit]"
O=C(Cc1cccc(F)c1)Nc1ccc2c(c1)CCC2,–,"inconclusive: 8.49 µM [inhibitor, partial curve, poor fit]"
Cc1cccc(OCc2nn[nH]n2)c1C,–,"inconclusive: 37.9 µM [inhibitor, partial curve, poor fit]"
COc1ccc(C2c3[nH]c4ccccc4c3CCN2C(=O)Cc2nonc2C)c(F)c1 (stereo unspecified),–,active: 4.78 µM
O=C1CCCN1CC(O)CS(=O)(=O)Cc1ccccc1Cl (stereo unspecified),inactive: 1.51%,–
CC1=C(C)CC(C(=O)NNC(=O)c2csc3c2CCC(C(C)(C)C)C3)C(C(=O)O)C1 (stereo unspecified),–,"inconclusive: 30.1 µM [inhibitor, single point]"
Clc1ccc(OCc2cc(-c3ccccc3)no2)cc1Cl,–,"inconclusive: 26.9 µM [inhibitor, single point]"
CCn1c(SCC(=O)N/N=C/c2ccc(O)c(OC)c2)nc2ccccc21,–,"inconclusive: 37.9 µM [inhibitor, partial curve, poor fit]"
COc1cc(/C=C/C(=O)c2ccccc2O)cc(OC)c1OC,–,"inconclusive: 37.9 µM [inhibitor, partial curve, poor fit]"
Cc1ccc(-c2csc(N3C(=N)SCC3=O)n2)cc1,–,active: 2.39 µM
Cc1cc(NC(=O)COc2cccc(C)c2C)no1,–,"inconclusive: 15.1 µM [inhibitor, partial curve, poor fit]"
COc1ccc(Cc2nc3ccc(C(=O)NCc4ccc(OC)cc4OC)cc3o2)cc1,inactive: -1.85%,–
c1ccc(C2=Nc3cccnc3C(c3ccccc3)=NN2)cc1,–,"inconclusive: 37.9 µM [inhibitor, partial curve, poor fit]"

Structure (SMILES),"activity change, negative = inhibition",Potency
COP(=O)(OC)c1nc(-c2cccc3ccccc23)oc1N1CCCCC1,inactive: -8.66%,–
CCCCc1ccc(NC(=O)N[C@H](C(=O)O)C(C)C)cc1,–,"inconclusive: 23.9 µM [inhibitor, single point]"
Cc1nn(CC(=O)NCCCN2CCCCC2C)c(=O)c2cccn12 (stereo unspecified),inactive: 1.26%,–
S=C(NCCc1ccccn1)Nc1ccc(Cl)cc1,–,"inconclusive: 16.9 µM [inhibitor, partial curve, poor fit]"
Cc1c(CC(=O)O)c(=O)oc2c(C)c(OCc3c(F)cccc3Cl)ccc12,–,"inconclusive: 26.9 µM [inhibitor, single point]"
O=C1CCSc2ccc(S(=O)(=O)Nc3ccc(Cl)c(C(F)(F)F)c3)cc2N1,–,"inconclusive: 19 µM [inhibitor, single point]"
COc1nc(-c2ccccc2)ccc1-c1noc(-c2cccnc2)n1,–,"inconclusive: 5.36 µM [inhibitor, partial curve]"
CCc1ccc(OCC(=O)O/N=C(\N)c2ccncc2)cc1,–,"inconclusive: 26.9 µM [inhibitor, single point]"
COCCN(C(=O)CCl)C(C(=O)NC1CCCCC1)c1ccccc1C (stereo unspecified),inactive: 1.32%,–
NC(=O)C1CCN(c2nc(-c3cccc([N+](=O)[O-])c3)cs2)CC1,–,"inconclusive: 37.9 µM [inhibitor, partial curve, poor fit]"
COc1cc(OC)cc(-c2nc(-c3cccc(C)c3)no2)c1,–,"inconclusive: 12 µM [inhibitor, partial curve]"
O=C(Nc1sc2c(c1C(=O)O)CCCC2)c1ccc(F)cc1,–,active: 15.1 µM
Clc1cccc(Cl)c1-c1noc(CN2CCOCC2)n1,inactive: 1.95%,–
CC1CCN(C(=O)c2ccc3ccccc3c2)CC1,–,active: 12 µM
COc1ccc(C)cc1NC(=O)NCc1cccn1Cc1ccccc1,inactive: 7.91%,–
CC(C)(C)c1ccc(C(CC(=O)O)NC(=O)Cc2ccc(F)cc2)cc1 (stereo unspecified),–,"inconclusive: 37.9 µM [inhibitor, partial curve, poor fit]"
CCOc1cccc(C(=O)Nc2ccc3ccccc3c2)c1,–,active: 0.478 µM
CCC(=O)NC(=S)Nc1cccc(NC(=O)c2ccccc2C)c1,–,"inconclusive: 30.1 µM [inhibitor, single point]"
Clc1cccc(Cl)c1Cn1ccc(C2CC2)n1,–,active: 12 µM
O=C(Nc1cccc(C(=O)O)c1)/C(=C/c1ccc2c(c1)OCO2)NC(=O)c1cccc(Br)c1,–,"inconclusive: 23.9 µM [inhibitor, single point]"
Fc1cccc2sc(N3CCCCC3)nc12,–,active: 19 µM
CCOC(=O)c1oc2ccccc2c1COC(=O)CNC(=O)c1cccc(C)c1,inactive: 3.08%,–
CC(/C=N/NC(=O)c1ccc(Br)cc1)=C\c1ccccc1,–,"inconclusive: 2.69 µM [inhibitor, full curve]"
Cc1ccccc1CN1c2ccccc2S(=O)(=O)c2ccccc21,–,"inconclusive: 12 µM [inhibitor, partial curve, poor fit]"
Cc1cccc(C(=O)NNC(=O)c2n[nH]c(=O)c3ccccc23)c1C,–,"inconclusive: 23.9 µM [inhibitor, single point]"
N#Cc1nc(-c2cccs2)oc1NCC1CCCO1 (stereo unspecified),inactive: -14.3%,–

Structure (SMILES),"activity change, negative = inhibition",Potency
C=CCn1c(C)cc(C(=O)CSc2ccc(NC(C)=O)cc2)c1C,–,active: 16.9 µM
COCC(C)N1CCC(Oc2ccc(C(=O)N3CCCC3)cc2)CC1 (stereo unspecified),inactive: 3.93%,–
CC(=O)N1CCCC(C(=O)c2ccc(Oc3ccccc3)cc2)C1 (stereo unspecified),–,"inconclusive: 30.1 µM [inhibitor, partial curve, poor fit]"
O=C(COc1cccc2cccnc12)Nc1ccccc1,–,active: 21.3 µM
Cc1onc(-c2c(F)cccc2Cl)c1C(=O)N1CCN(c2ncc(Br)cn2)CC1,inactive: -4.31%,–
CCOc1ccc(CCNC(=O)c2cc3c(s2)-c2ccccc2OC3)cc1OCC,inactive: -6.95%,–
Cc1ccc(-c2cc(NC(=O)COc3ccc(Cl)cc3C)on2)cc1,inactive: 0.313%,–
Oc1ccccc1-c1nnc2n1CCCCC2,inactive: -2.51%,–
Cc1ccc(C(=O)Nc2nc(=O)n(C)s2)cc1,–,active: 2.13 µM
CCCCNC(=O)C(c1ccc(OCC(=O)OC)c(C(=O)OC)c1)N(CCOC)C(=O)CCCCCN1C(=O)NC(c2ccc(-c3ccccc3)cc2)C(C(=O)OCc2ccccc2)=C1C (stereo unspecified),inactive: -1.15%,–
Cc1nc(NC(=O)c2ccc(F)cc2)nc2cc3c(cc12)OCO3,–,"inconclusive: 37.9 µM [inhibitor, partial curve, poor fit]"
CCCc1c(C)nn(-c2ncccc2[N+](=O)[O-])c1C,inactive: 3.33%,–
O=C(COc1ccccc1)Nc1ccc(S(=O)(=O)N2CCOCC2)cc1,inactive: 0.441%,–
CCc1ccc2nc3nc(C)cc(C)c3c(N)c2c1,–,"inconclusive: 23.9 µM [inhibitor, single point]"
CCC(C)C(NC(=O)CCC(=O)OCC(=O)[C@@]1(O)CCC2[C@@H]3CCC4=CC(=O)C=C[C@]4(C)C3[C@@H](O)C[C@@]21C)C(=O)O (stereo partly specified),inactive: 0.619%,–
O=Cc1ccccc1Oc1ccccc1,inactive: -6.34%,–
COc1ccc2oc(=O)c(-c3csc(Nc4ccc(O)cc4)n3)cc2c1,–,active: 3.01 µM
Cc1[nH]c2ccccc2c1C(=O)C(C)OC(=O)c1ccccc1NCCO (stereo unspecified),–,"inconclusive: 16.9 µM [inhibitor, partial curve]"
Cc1cc(C(=O)CSc2nnc(NCc3ccccc3)s2)c(C)n1C,–,"inconclusive: 26.9 µM [inhibitor, single point]"
COc1ccc(C(=O)Nc2cccc(C(=O)O)c2)cc1S(=O)(=O)N1CCCC1,–,active: 10.7 µM
COC(=O)c1scc(-c2ccc(C)cc2)c1S(=O)(=O)Nc1ccc(N(C)C)cc1,–,"inconclusive: 19 µM [inhibitor, partial curve]"
CC(C)c1ccc(OCC(=O)Nc2cccc(C(=O)Nc3ccccc3C(=O)O)c2)cc1,–,active: 21.3 µM
CCOC(=O)c1ccc(NC(=S)Nc2ccc(C)cc2)cc1,–,"inconclusive: 26.9 µM [inhibitor, partial curve, poor fit]"
Cc1ccc(-n2c3c(c(=O)[nH]c2=O)C(NC(=O)c2ccccc2C)(C(F)(F)F)C(=O)N3)cc1 (stereo unspecified),inactive: -1.49%,–
